Assay results: article PMC6919601, “Identification of Plasmodium dipeptidyl aminopeptidase allosteric inhibitors by high throughput screening” (PLoS ONE, 2019)
The campaign covered roughly 110,000 compounds. About 230 (0.21%) showed an effect of 50% or more. Some of the results follow.

Target: DPAP1 (Plasmodium falciparum, UniProt Q8IIJ9)
Assay: primary screen, percent inhibition; read by cleavage of a fluorogenic dipeptide substrate; higher = more effect of the substance
Set-up: species or system P. falciparum D10 trophozoite lysates; single well
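Note: 30 min substrate incubation versus DMSO and 10 µM JCP410 controls.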

Sequence of DPAP1 (Q8IIJ9 whole entry, looked up): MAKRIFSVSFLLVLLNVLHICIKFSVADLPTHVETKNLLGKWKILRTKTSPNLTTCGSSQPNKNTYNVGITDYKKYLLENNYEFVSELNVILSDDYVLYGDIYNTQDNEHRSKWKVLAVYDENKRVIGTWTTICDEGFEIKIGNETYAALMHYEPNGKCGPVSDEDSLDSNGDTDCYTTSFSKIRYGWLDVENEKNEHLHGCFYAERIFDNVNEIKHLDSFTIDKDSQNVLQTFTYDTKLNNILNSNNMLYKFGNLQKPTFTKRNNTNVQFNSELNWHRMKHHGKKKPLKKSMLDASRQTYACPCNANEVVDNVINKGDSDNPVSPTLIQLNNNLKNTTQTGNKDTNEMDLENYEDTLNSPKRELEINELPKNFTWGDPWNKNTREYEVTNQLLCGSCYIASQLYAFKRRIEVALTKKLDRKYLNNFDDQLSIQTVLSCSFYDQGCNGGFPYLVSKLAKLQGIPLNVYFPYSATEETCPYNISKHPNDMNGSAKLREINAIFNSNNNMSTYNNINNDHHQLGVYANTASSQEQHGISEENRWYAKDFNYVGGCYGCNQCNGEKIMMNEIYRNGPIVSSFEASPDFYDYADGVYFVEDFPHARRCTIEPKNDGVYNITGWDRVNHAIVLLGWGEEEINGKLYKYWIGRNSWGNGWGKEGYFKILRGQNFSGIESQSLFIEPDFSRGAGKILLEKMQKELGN

| Compound | % Inhibition @ 10 uM |
| --- | --- |
| CCOc1cc(C2C(C#N)=C(N)OC3=C2C(=O)CC(C)(C)C3)ccc1OCC(=O)Nc1ccccc1 (centres unmarked) | 1.4% |
| O=C(O)CCCc1cn(Cc2ccc(F)cc2)c2ccccc12 | 4.79% |
| CC(=O)c1ccc(N2C(=O)c3ccc(Oc4ccccc4)cc3C2=O)cc1 | -2.09% |
| COc1cc(OC)c(OC)cc1CN1CCN(C(=O)c2ccc(OC)c(OC)c2)CC1 | 7.31% |
| COc1ccc(C(O)(C(=O)O)c2ccc(OC)cc2)cc1 | -9.41% |
| Cc1ccc(-n2ncc3c(N4CCC5(CC4)OCCO5)ncnc32)c(C)c1 | -6.87% |
| CC1=C(C(=O)Nc2cccc(C)c2C)C(c2ccccc2F)NC(=O)N1 (centres unmarked) | -2.67% |
| Cc1ccnc(N2CCCC(C(=O)O)C2)n1 (centres unmarked) | -8.78% |
| C=CCNS(=O)(=O)c1ccc(C)cc1 | 1.42% |
| CC(C)C[C@@H](NC(c1ccc(Br)cc1)C(F)(F)F)C(=O)NCC#N (some centres unmarked) | -3.04% |
| O=S(=O)(Nc1ccc(F)cc1)c1ccccc1 | -1.77% |
| COc1ccc(C(=O)NCc2nc(-c3ccc(Cl)cc3)no2)cc1OC | -6.72% |
| Cc1cc(C)c(C)c(S(=O)(=O)Nc2ccc(C(=O)N3CCN(C)CC3)cc2)c1C | -2.85% |
| Cc1cc2cc(CNC(=S)NC(C)(C)C)ccc2n1C | 1.55% |
| CO/C(O)=C1\C(C)=NC2=C(C(=O)CC(c3ccccc3)C2)C1c1cc2c(cc1Br)OCO2 (centres unmarked) | -5.9% |
| C=CCOc1ccc(C2C(C(=O)c3ccc(OC)cc3)=C(O)C(=O)N2CCCn2ccnc2)cc1 (centres unmarked) | 2.17% |
| CCCCOc1ccc(C2(C)CC(=O)NC2=O)cc1 (centres unmarked) | 2.51% |
| Nc1nc(Cl)nc(Nc2ccccc2OC(F)(F)C(F)Cl)n1 (centres unmarked) | 3.06% |
| CCOC(=O)C1CN1C(CC)C(=O)OC (centres unmarked) | -1.59% |
| CCc1nn(Cc2ccc(F)cc2)c(=O)c2cc3cc(C)ccc3n12 | 4.55% |
| COc1ccc(Cl)cc1C(=O)NCCN1CCN(C(=O)c2cc(Cl)ccc2OC)CC1 | 2.03% |
| O=C(O)CN1C(=O)c2ccc(Oc3ccc(Br)cc3)cc2C1=O | -0.68% |
| O=S(=O)(c1ccc(-c2ccc(S(=O)(=O)N3CCCCC3)cc2)cc1)N1CCCCC1 | -5.41% |
| CCC(NC(=O)C(Cc1c(F)cccc1F)NC(=O)c1ccc(Oc2ccccc2)cc1)C(=O)c1nc2ccccc2o1 (centres unmarked) | 1.35% |
| Cc1ccc(CNC(=O)C2CCCN(S(=O)(=O)c3ccc4[nH]c(-c5ccccc5)nc4c3)C2)cc1 (centres unmarked) | -1.69% |

| Compound | % Inhibition @ 10 uM |
| --- | --- |
| Cc1ccc(-n2nnc(C(N)=O)c2C)cc1F | 1.68% |
| O=C(Nc1cccc(F)c1)c1cccc(Br)c1 | 1.48% |
| Cn1nnnc1SCC(=O)N1CCc2ccccc2C1 | -0.703% |
| CCC1CCCCN1Cc1nc2c(c(=O)n(C)c(=O)n2C)n1Cc1cc(C)ccc1C (centres unmarked) | -0.499% |
| O=C(NCc1ccncc1)Nc1cccc(F)c1 | 7.06% |
| COc1cccc(-c2[nH]nc3c2C(c2cc(OC)cc(OC)c2)C(C#N)=C(N)O3)c1 (centres unmarked) | -5.63% |
| COc1ccc(C(=O)/C=C/c2cccc(Cl)c2)c(OC)c1 | -0.546% |
| COCc1cc(C)nc2sc(C(O)c3ccccc3)c(NC(=O)c3ccco3)c12 (centres unmarked) | 1.62% |
| CCn1cc(C(=O)Nc2cc(C(=O)O)ccc2C)c(C)n1 | -0.171% |
| COc1ccc(S(=O)(=O)N2CCC(C(=O)Nc3cc(Cl)c(Cl)cc3Cl)CC2)cc1 | -3.45% |
| Cc1[nH]c2ccccc2c1CCNC(=O)NC(=O)c1c(F)cccc1F | 0.83% |
| CCOc1ccc(NC(=O)COc2ccc(CC)cc2)cc1 | -5.1% |
| N#Cc1cc2c(N)c(C(=O)Nc3ccc(OC(F)(F)F)cc3)sc2nc1N | 12.4% |
| COc1ccc(OC)c(N(CC(=O)Nc2ccc(Br)cc2)S(C)(=O)=O)c1 | 3.17% |
| O=C(C1CCN(c2nnc(N3CCCC3=O)s2)CC1)N1CCC(Cc2ccccc2)CC1 | 3.87% |
| Cc1c(CC(=O)N2CCCC2)c(=O)oc2cc(O)ccc12 | -0.808% |
| CCn1c(-c2ccc(OC)c(OC)c2)nc2ccccc21 | -2.5% |
| Brc1cccc(CN2CCN(Cc3ccncc3)CC2)c1 | 3.65% |
| CC1CCN(c2c(NCC3CCC(C(=O)N4CCOCC4)CC3)c(=O)c2=O)CC1 (centres unmarked) | -3.96% |
| COc1cc(/C=C/C(=O)Nc2nc3ccc(S(C)(=O)=O)cc3s2)ccc1OCc1ccccc1 | -3.28% |
| Cc1cccc(NC(=O)C2CCCN(c3ncnc4onc(-c5ccc(F)cc5)c34)C2)n1 (centres unmarked) | 1.92% |
| NC(=O)c1cccc(S(=O)(=O)N2CCCCC2)c1 | -1.22% |
| Cc1cc(C(=O)N2CCOCC2)c2c(C)nn(-c3ccccc3Cl)c2n1 | 2.12% |
| Cn1ccnc1SCC(=O)c1ccc(Br)cc1 | -9.44% |
| COc1ccc(OC)c(C2NC(=O)NC(C)=C2C(=O)OCC(F)(F)C(F)(F)F)c1 (centres unmarked) | -4.77% |
